Source: patent US20220017635A1 (Kyowa Kirin, published 2022)

Tests used:
[1] = molecular target: T1, human EGFR-GST (human, UniProt P00533 part only); assay: SPR (Biacore T100), KD for human EGFR-GST divided by KD for monkey EGFR-GST
T1 construct: also called human EGFR-GST protein; not shown: GST fused at the C terminus, with any junction residues

[2] = molecular target: T1, human EGFR-GST; assay: SPR (Biacore T100), bispecific captured via anti-human IgG, antigen as analyte, single cycle kinetics
[3] = molecular target: T2, monkey EGFR-GST (monkey, UniProt P55245 part only); assay: as above
T2 construct: also called monkey EGFR-GST protein; not shown: GST added to the C terminus

[4] = molecular target: T3, FLAG-Fc-human TfR (human, UniProt P02786); assay: SPR (Biacore T100), KD for FLAG-Fc-human TfR divided by KD for FLAG-Fc-monkey TfR
T3 construct: also called FLAG-Fc-human TfR protein; soluble human TfR antigen; not shown: FLAG-tag and Fc region of human IgG from the INPEP4 vector, added to the N terminus

[5] = molecular target: T4, FLAG-Fc-monkey TfR (monkey, UniProt Q5RDH6 89-760); assay: SPR (Biacore T100), bispecific captured via anti-human IgG, antigen as analyte, single cycle kinetics
T4 construct: also called FLAG-Fc-monkey TfR protein; soluble monkey TfR antigen; not shown: FLAG-tag and Fc region of human IgG from the INPEP4 vector, added to the N terminus
T4 chain: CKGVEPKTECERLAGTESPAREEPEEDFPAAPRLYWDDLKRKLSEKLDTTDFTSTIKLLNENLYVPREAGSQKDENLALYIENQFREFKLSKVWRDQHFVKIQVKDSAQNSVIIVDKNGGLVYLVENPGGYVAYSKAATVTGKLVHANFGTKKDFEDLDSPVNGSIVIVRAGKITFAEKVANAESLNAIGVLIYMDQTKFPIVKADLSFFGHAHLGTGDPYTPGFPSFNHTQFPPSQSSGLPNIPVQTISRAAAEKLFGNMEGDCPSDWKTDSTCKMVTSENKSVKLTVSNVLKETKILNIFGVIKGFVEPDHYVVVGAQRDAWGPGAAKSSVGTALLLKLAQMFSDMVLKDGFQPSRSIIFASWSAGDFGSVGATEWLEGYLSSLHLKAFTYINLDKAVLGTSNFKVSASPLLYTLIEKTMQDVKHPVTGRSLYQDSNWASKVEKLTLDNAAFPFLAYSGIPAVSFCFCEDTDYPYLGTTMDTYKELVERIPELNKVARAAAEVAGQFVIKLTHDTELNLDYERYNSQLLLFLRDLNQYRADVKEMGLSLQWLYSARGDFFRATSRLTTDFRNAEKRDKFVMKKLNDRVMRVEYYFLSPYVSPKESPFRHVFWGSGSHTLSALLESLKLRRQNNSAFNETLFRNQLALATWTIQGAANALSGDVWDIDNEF

[6] = molecular target: T3, FLAG-Fc-human TfR; assay: as above

Binder	Human EGFR [nM]/Monkey EGFR [nM] (KD ratio) [1]	Kd [2] [nM]	Kd [3] [nM]	Human TfR [nM]/Monkey TfR [nM] (KD ratio) [4]	Kd [5] [nM]	Kd [6] [nM]
E12-TfR1071 (bispecific antibody, also called E12-TfR1071 bispecific antibody; EGFR-TfR bispecific antibody; copies: 2 + 4) heavy: QVQLVESGGGLVQPGGSLRLSCAASRFTFSAYAMGWVRQAPGKGLEWVSIIDSGGVYTYYADSMKGRFTISRDNSKNTLYLQMNSLRAEDTAVYYCARDHYGVVWGLGDYWGQGTLVTVSSASTKGPSVFPLAPCSRSTSESTAALGCLVKDYFPEPVTVSWNSGALTSGVHTFPAVLQSSGLYSLSSVVTVPSSSLGTKTYTCNVDHKPSNTKVDKRVYVQLVESGGGLVQPGGSLRLSCAASGFSFDKYTMNWVRQAPGKGLEWVSVISNGGVSTDYADSVKGRFTVSRDNSKNTLYLQMNSLRAEDMATYYCARASQPWLYRTGADVWGQGTLVTVSSASTKGPSVFPLAPCSRSTSESTAALGCLVKDYFPEPVTVSWNSGALTSGVHTFPAVLQSSGLYSLSSVVTVPSSSLGTKTYTCNVDHKPSNTKVDKRV[left out - human IgG4 Fc with S228P L235E R409K (EU numbers)] VL: [left out - about 100 residues]	0.84	0.21	0.25	–	–	–
E12-cyno186 (bispecific antibody, also called EGFR-TfR bispecific antibody; copies: 2 + 4) heavy: QVQLVESGGGLVQPGGSLRLSCAASRFTFSAYAMGWVRQAPGKGLEWVSIIDSGGVYTYYADSMKGRFTISRDNSKNTLYLQMNSLRAEDTAVYYCARDHYGVVWGLGDYWGQGTLVTVSSASTKGPSVFPLAPCSRSTSESTAALGCLVKDYFPEPVTVSWNSGALTSGVHTFPAVLQSSGLYSLSSVVTVPSSSLGTKTYTCNVDHKPSNTKVDKRVQVQLVESGGEFVQPGGSLRLSCAASGFPFKGYAMNWVRQAPGKGLEWVSRISNGGSYIDYADSVKGRFTISRDNSKNTLYLQIDSLRTEDTAVYYCAKAKDAYRWNNAIDEWGQGTLVTVSSASTKGPSVFPLAPCSRSTSESTAALGCLVKDYFPEPVTVSWNSGALTSGVHTFPAVLQSSGLYSLSSVVTVPSSSLGTKTYTCNVDHKPSNTKVDKRV[left out - human IgG4 Fc with S228P L235E R409K (EU numbers)] VL: [left out - about 100 residues]	–	–	–	0.19	56.5	10.7
E17-TfR1071 (bispecific antibody, also called EGFR-TfR bispecific antibody) heavy: QVQLQQWGAGLLKPSETLSLTCALYSGSFSAQDWSWIRQSPEKGLEWIGEIWQGGKTNYNPSLKSRVSISRDNSKNQLSLQLSSVTAADTAVYYCARVDWSYRVFEIWGQGTMVTVSSASTKGPSVFPLAPCSRSTSESTAALGCLVKDYFPEPVTVSWNSGALTSGVHTFPAVLQSSGLYSLSSVVTVPSSSLGTKTYTCNVDHKPSNTKVDKRVYVQLVESGGGLVQPGGSLRLSCAASGFSFDKYTMNWVRQAPGKGLEWVSVISNGGVSTDYADSVKGRFTVSRDNSKNTLYLQMNSLRAEDMATYYCARASQPWLYRTGADVWGQGTLVTVSSASTKGPSVFPLAPCSRSTSESTAALGCLVKDYFPEPVTVSWNSGALTSGVHTFPAVLQSSGLYSLSSVVTVPSSSLGTKTYTCNVDHKPSNTKVDKRV[left out - human IgG4 Fc with S228P L235E R409K (EU numbers)] VL: [left out - about 100 residues]	0.46	0.31	0.67	–	–	–
E17-cyno186 (bispecific antibody, also called EGFR-TfR bispecific antibody) heavy: QVQLQQWGAGLLKPSETLSLTCALYSGSFSAQDWSWIRQSPEKGLEWIGEIWQGGKTNYNPSLKSRVSISRDNSKNQLSLQLSSVTAADTAVYYCARVDWSYRVFEIWGQGTMVTVSSASTKGPSVFPLAPCSRSTSESTAALGCLVKDYFPEPVTVSWNSGALTSGVHTFPAVLQSSGLYSLSSVVTVPSSSLGTKTYTCNVDHKPSNTKVDKRVQVQLVESGGEFVQPGGSLRLSCAASGFPFKGYAMNWVRQAPGKGLEWVSRISNGGSYIDYADSVKGRFTISRDNSKNTLYLQIDSLRTEDTAVYYCAKAKDAYRWNNAIDEWGQGTLVTVSSASTKGPSVFPLAPCSRSTSESTAALGCLVKDYFPEPVTVSWNSGALTSGVHTFPAVLQSSGLYSLSSVVTVPSSSLGTKTYTCNVDHKPSNTKVDKRV[left out - human IgG4 Fc with S228P L235E R409K (EU numbers)] VL: [left out - about 100 residues]	–	–	–	0.75	5.39	4.02
